Values marked as one replicate rest on one cluster of the flow cell; about a third of the high ones do not repeat.
System: ATP
Test: switch fluorescence ratio, 500 uM ATP over buffer (Cy3 cluster intensity, sum of 5 cycles each) (fold (ratio)); higher = stronger signal-on switching upon ATP binding; sequences stand for … in TCGTCGGCAGCGTCAGATGTGTATAAGAGACAGTTTTTTTTTTTTTTTTTTTTTTTTT…TC
Settings: aptamer strand: ATP DNA aptamer (quencher-CACCTGGGGGAGTATTGCGGAGGAAGG + anchor), 100 nM annealed; ATP concentration: 500 uM; one replicate
Outline: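 Values give the fluorescence ratio for each switch-domain sequence, averaged from per-cluster ratios of summed target-cycle to summed buffer-cycle Cy3 intensity. The Cy3-labelled switching-strand clusters sat on a modified Illumina MiSeq flow-cell, were annealed to 100 nM quencher-labelled ATP aptamer, and were imaged in selection buffer, then after 15 min with 500 uM ATP at 22 °C. Five cycles ran with NaOH stripping and re-annealing between them, and clusters outside 100-1000 RFU were excluded.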
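Also: ATP exposure 15 min at 22 °C before imaging.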

Row | Sequence | switch fluorescence ratio
1 | AGTAATCGGA | 0.956
2 | GGGGCACTAC | 2.45
3 | TTTATCCACT | 1.06
4 | TCAGAACACG | 1.05
5 | CTGGGCGGG | 0.989
6 | ATAAGTCGTT | 0.972
7 | ATAAAGCGTC | 1.12
8 | TGACACAGGC | 1.05
9 | AGGGGATACT | 2.27
10 | TTGGCTTCT | 1.03
11 | GGCCGTTTTT | 0.966
12 | CGACTAAGGA | 1.07
13 | CCTCTAATG | 1.42
14 | ATCTATAAGA | 0.959
15 | AAATACGGGG | 1.04
16 | GGGGAACTGA | 1.01
17 | CGTCATCAAA | 1.04
18 | TGCCTGGGAC | 0.994
19 | TGAAGAACTC | 1.01
20 | GGCTGACAGT | 0.957
21 | TCGAGTGTGG | 1.03
22 | AGCGTCGGAC | 0.999
23 | TAGAAGATAT | 1

Row | Sequence | switch fluorescence ratio
24 | ATGGCCCAAC | 1.03
25 | ACGGTACCA | 1.48
26 | ATCTGAATGC | 1.14
27 | ACCTGCTATA | 1.23
28 | CGGGGACCGT | 1.03
29 | TTGACCCCTT | 1.13
30 | AGCGGTGTCG | 1.04
31 | TGTTTAGCG | 0.955
32 | ATCACGCCCA | 1.18
33 | TAGGAGACTT | 1
34 | GCATAGCTTT | 1
35 | AATCCCTGTG | 1.04
36 | CGCTTCAGGG | 1.07
37 | AAGGAGAGCA | 0.96
38 | CACGCTGTCA | 1.01
39 | ACAAGCTTGA | 1.01
40 | CGATCGTTTC | 1.07
41 | ATGTAGCTTT | 1.03
42 | TTCACGTTA | 1.28
43 | CCGCTGAAAG | 1.06
44 | CCGTTAACGG | 0.973
45 | GTTCGTTTCT | 0.961
46 | TAGTTCGAGT | 0.978

Row | Sequence | switch fluorescence ratio
47 | TACCGCCGTA | 1
48 | GTGAACGTGG | 1.01
49 | CCTTTGGGGC | 0.995
50 | GACAATACCC | 1.11
51 | TCCGCACCTG | 1.24
52 | TTGGTCCTCG | 1.03
53 | TATAGCGGTG | 0.989
54 | ACAGTATTTT | 1.09
55 | GCCAATGCTG | 1.08
56 | ACGGTAGCG | 1.11
57 | AGGTAGAGAA | 1.02
58 | CCAGACACGT | 1.01
59 | TCTACTTTGT | 0.977
60 | TAGTGCGCA | 0.921
61 | ATGTTGATCA | 1.03
62 | TGGGCGGCGC | 1.01
63 | TCGTCACCGG | 1.04
64 | TCGACGTTT | 1.09
65 | CATGCGAGAT | 1.05
66 | CTTAGAGCTC | 0.992
67 | GAAATTACGA | 1.08
68 | TTCAGGTTA | 0.981
69 | ATCTTGGCAC | 1

Row | Sequence | switch fluorescence ratio
70 | GACTTGGACC | 1.05
71 | CTCGGGGAAC | 1.09
72 | CTAAGAAAG | 0.989
73 | GGCGTATGTA | 1
74 | CGGTAAAACG | 0.92
75 | TTATGGTCTC | 0.945
76 | CGAGAAAAGT | 0.996
77 | AAGGTAAGAA | 0.954
78 | TTATTGGCTA | 0.978
79 | AACGCTTATA | 1.13
80 | TGGCCCTCGT | 1.05
81 | GGGAGCAGGT | 0.994
82 | AATTTAAGCA | 1.02
83 | GGGAGAATGT | 0.999
84 | GATGAAGGGC | 1.07
85 | ACGAAGAGAA | 0.984
86 | AGACTACACA | 1.2
87 | TCGGGAAGTA | 0.968
88 | ACGGGTTTCT | 0.995
89 | GCGCTGAACG | 1.04
90 | ACCCACGGGT | 1.29
91 | AATTGGGGC | 1.05
92 | GTTTTCAAGG | 0.993

Row | Sequence | switch fluorescence ratio
93 | TATAACGAC | 1.01
94 | TTAACAGCAG | 1.06
95 | AAAGTTGA | 0.984
96 | TCTTGCGCTA | 1.31
97 | AGGTTTCTCA | 1.02
98 | TCACATATAG | 1.06
99 | ACTGTGCAT | 1.27
100 | CGATTAGGTT | 1.04
101 | ACACTTAGGT | 1.04
102 | GCCAGAACTT | 0.97
103 | ATCGACTTGT | 0.981
104 | GATGTTATCT | 1.01
105 | TCATACTGAG | 1.04
106 | TATCTTATGA | 0.997
107 | TCATCCTATT | 0.997
108 | GGGACTTTCG | 0.968
109 | TTTCGTGAGG | 1.03
110 | TATCTAGATG | 1.02
111 | ATAGGCAAGC | 1.24
112 | CGTTACAAGA | 1.02
113 | ACCAATCAGG | 0.988
114 | GTCAGTGCGC | 0.978
115 | CATTATGGTA | 1.04

Row | Sequence | switch fluorescence ratio
116 | CAGATTAATA | 0.977
117 | ATCGCAAGAT | 1.19
118 | TACAATGTG | 0.96
119 | AAGATAAGGC | 0.99
120 | TGATAGTGCG | 0.989
121 | GAGGTCTGA | 0.961
122 | TTGGGAACG | 1.02
123 | GCGAGACGAA | 1.04
124 | TATATACGTG | 1
125 | AATAACGTCG | 0.933
126 | ATGACAGTTT | 1.04
127 | GTAGATGGGA | 1.02
128 | CCATTAAGGC | 1.08
129 | AGGGCAAGCT | 0.983
130 | ACTCATAGCA | 1.19
131 | ATGACTCCCC | 1.21
132 | GCATCGGATA | 1.02
133 | CGTGGTTGT | 0.969
134 | TCGGTTTGTA | 1.04
135 | GGCATGAGTG | 1.01
136 | GGTCCCACGA | 0.967
137 | AGGTTTCGGG | 0.992
138 | CTTGACTCAT | 1.04

Row | Sequence | switch fluorescence ratio
139 | GTTGACGTCC | 1.03
140 | TTCTCGTTAG | 1.15
141 | TTCAATCTGG | 1
142 | CGCCGCGCGG | 0.962
143 | GCGTGAGGGA | 1.04
144 | TAGCCCCTTG | 1.02
145 | CACATAGACT | 1.03
146 | AAAGTTATC | 1
147 | TTCCGTGTC | 1.08
148 | ACCGATCTTG | 0.972
149 | CTCAAGGGA | 0.974
150 | ACCGGGCACG | 1.04
151 | CAATGATGCA | 0.972
152 | AGTAGACTGT | 1.02
153 | TTAAATCTAA | 0.938
154 | AAGGGACATG | 1.1
155 | ACTGCGCCCG | 1.06
156 | AGCTGAGCGC | 1.01
157 | ATTGCCGAGA | 1
158 | ACGATCTGGT | 0.997
